# Measurements as given in PubChem BioAssay AID2107 (National Center for Advancing Translational Sciences (NCATS), 2009).
# Out of some 240,000 compounds screened, about 20 (0.008%) were called active. Inconclusive means that the source gave no clear call. Such entries were picked first, then a sample of the others. Calls follow the shape of the dose curve; as a rule, active = well fitted inhibition curve with a large enough effect; inconclusive = small, poorly fitted or top-dose-only effect, or effect the other way; inactive = flat fitted curve, though single readings scatter. Potencies of inconclusive entries are left out as doubtful fits.
# Molecular target: Alpha-galactosidase A (Homo sapiens) (UniProt P06280)
# Test: qHTS Assay for Inhibitors and Activators of Human alpha-Galactosidase From Spleen Homogenate
# Conditions: 4MU-alpha-Gal fluorescence, 40 min; series mostly up to 80 µM
# Outline: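 Human spleen homogenate (1 ug) as enzyme source, 4-methylumbelliferyl-alpha-D-galactopyranoside 1 mM final, citrate/phosphate pH 5.0 with 0.01% Tween-20. Compounds 40 min at 37C, NaOH/glycine stop; fluorescence Ex 365/Em 440, Hill-fit AC50.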
# Potency is read from the fitted curve at half-maximal effect; tags tell the direction and shape of the fitted curve.
# Sequence of UniProt P06280 (P06280 whole entry, looked up): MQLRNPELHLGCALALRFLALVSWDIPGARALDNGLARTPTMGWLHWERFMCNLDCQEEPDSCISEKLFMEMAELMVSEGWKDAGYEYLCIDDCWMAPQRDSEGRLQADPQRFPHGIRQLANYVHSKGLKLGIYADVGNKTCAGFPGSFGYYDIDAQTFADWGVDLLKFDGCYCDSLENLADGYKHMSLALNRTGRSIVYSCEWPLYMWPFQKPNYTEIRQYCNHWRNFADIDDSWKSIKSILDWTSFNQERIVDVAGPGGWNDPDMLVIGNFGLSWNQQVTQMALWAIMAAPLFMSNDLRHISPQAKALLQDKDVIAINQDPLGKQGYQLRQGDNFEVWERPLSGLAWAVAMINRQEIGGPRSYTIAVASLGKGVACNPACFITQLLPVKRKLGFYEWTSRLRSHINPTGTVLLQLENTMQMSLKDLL
row,Structure (SMILES),Potency
1,O=C(COc1ccc(S(=O)(=O)NC2CCCCC2)cc1)NCCC1=CCCCC1,"inconclusive [inhibitor, single point]"
2,NC(=S)N/N=C/c1coc2ccc(F)cc2c1=O,"inconclusive [inhibitor, partial curve]"
3,Cc1cc(C)[n+](-c2ccc(F)cc2)c2[nH]c(=O)[nH]c(=O)c12,"inconclusive [activator, partial curve]"
4,COc1ccc(OC)c(/C=N/NC(=O)CCc2c(C)n[nH]c2C)c1,"inconclusive [activator, partial curve]"
5,CN1CCc2c(sc(NC(=O)c3cc4cc([N+](=O)[O-])ccc4s3)c2C(N)=O)C1,inactive
6,Cc1ccccc1-n1c(SCC(=O)N/N=C/c2ccccc2OCC(=O)O)nc2ccccc2c1=O,"inconclusive [inhibitor, partial curve]"
7,COc1cc(NC(=O)CN(c2ccc(C)cc2)S(=O)(=O)c2c(C)nn(C)c2C)cc(OC)c1,"inconclusive [activator, single point]"
8,Cc1cc(-n2c(C)cc(C(=O)COc3ccc4ccc(=O)oc4c3)c2C)no1,"inconclusive [activator, single point]"
9,CNC(=O)CSc1nnc(-c2ccccc2)n1C,inactive
10,CSc1nnc(-c2cc3c(s2)-c2ccccc2CC3)o1,"inconclusive [activator, partial curve]"
11,CN1CCCc2cc(C#N)c(=O)[nH]c21,"inconclusive [activator, single point]"
12,O=C(O)c1cc(N=Nc2ccc([N+](=O)[O-])cc2)ccc1O,inactive
13,COc1ccccc1N1N=C(c2cccs2)CC1c1ccccc1 (stereo not given),"inconclusive [activator, partial curve]"
14,CCCc1cc(=O)oc2c(CN(CC)CC)c(O)c(Cl)cc12,"inconclusive [activator, partial curve]"
15,CCN1C(=O)CC(NCc2ccc3c(c2)OCO3)C1=O (stereo not given),"inconclusive [inhibitor, single point]"
16,CC(=O)n1c2ccccc2c2c1c1ccccc1n2C,"inconclusive [activator, single point]"
17,Cc1c(NC(=O)c2ccc(CN3CCc4ccccc4C3)cc2)c(=O)n(-c2ccccc2)n1C,"inconclusive [inhibitor, partial curve]"
18,CCOC(=O)c1c(NC(C)=O)no[n+]1[O-],"inconclusive [inhibitor, single point]"
19,Cc1c(N=Cc2ccc[nH]2)c(=O)n(-c2ccccc2)n1C,inactive
20,C=CCNC(=O)C(C#N)c1nc2ccccc2nc1N1CCN(Cc2ccccc2)CC1 (stereo not given),"inconclusive [activator, full curve]"
21,O=C(O)Cn1c2c(c3ccccc31)CCCC2,"inconclusive [activator, single point]"
22,CCN1CCN(C(=O)c2ccccc2N(Cc2ccccc2)S(C)(=O)=O)CC1,"inconclusive [activator, single point]"
23,COc1cc(OC)nc(NC(=O)CS(=O)(=O)c2ccccc2)n1,"inconclusive [inhibitor, single point]"

row,Structure (SMILES),Potency
1,COc1cc(SC)ccc1C(=O)NC(C)C,inactive
2,O=C(C1CCCN(Cc2cccs2)C1)N1CCCCCC1 (stereo not given),inactive
3,COc1ccccc1CN(C)C(C)C(=O)Nc1cccc(C(C)=O)c1 (stereo not given),inactive
4,COC(=O)c1ccc(Oc2nc(C(N)=O)cc(-c3ccccc3)n2)cc1,"inconclusive [activator, full curve, poor fit]"
5,Cn1cc(Cl)c(C(=O)N/N=C/c2ccc(OS(=O)(=O)c3ccccc3)cc2)n1,inactive
6,Fc1ccc(C2CC(c3cccs3)=NN2c2ccccc2)cc1 (stereo not given),"inconclusive [activator, partial curve]"
7,OC[C@H]1OC(O)(CN2CCOCC2)[C@H](O)[C@@H]1O (stereo not given in full),inactive
8,Cc1ccc(CSc2nc3c(cc2C#N)CCC3)cc1,inactive
9,OC[C@@H]1[C@@H](c2ccc(F)cc2)C(c2ccc(F)cc2)=NN1c1ccccc1,"inconclusive [activator, partial curve]"
10,COc1ccc(/C(O)=C2/C(=O)C(=O)N(CCN3CCOCC3)C2c2cccnc2)cc1OC (stereo not given),inactive
11,CC1=CC(c2ccc(Cl)cc2)n2nc(NC(=O)CCC(=O)O)nc2N1 (stereo not given),"inconclusive [activator, partial curve]"
12,O=C1OC(/C(=C\Nc2ccccc2)[N+](=O)[O-])c2ccccc21 (stereo not given),"inconclusive [inhibitor, single point]"
13,CCN1CCN(C(c2cc3cc4c(cc3[nH]c2=O)OCO4)c2nnnn2C(C)(C)CC)CC1 (stereo not given),"inconclusive [activator, partial curve]"
14,COc1cccc(NC(=O)CSc2nc3c(sc4ccccc43)c(=O)n2CCN(C)C)c1,"inconclusive [activator, single point]"
15,COc1ccccc1NC(=O)CN1CCC(n2c(C)nc3cc(F)ccc32)CC1,"inconclusive [inhibitor, single point]"
16,CSc1nc2oc3c(c2c2nncn12)CC(C)(C)SC3,"inconclusive [activator, single point]"
17,COc1cc(C)c(Cl)cc1S(=O)(=O)N(C)C,"inconclusive [inhibitor, single point]"
18,CCC1CCCN1Cn1cnc2c([nH]c3ccc(OC)cc32)c1=O (stereo not given),"inconclusive [activator, single point]"
19,CCOC(=O)CSC1=NC(=O)/C(=C\c2ccc(OC(C)=O)cc2)S1,inactive
20,c1ccn2c(c1)nc1c2nc2ccccn21,"inconclusive [activator, partial curve]"
21,Cc1cc(Cl)c(S(=O)(=O)Nc2ccccn2)cc1OCC(N)=O,"inconclusive [activator, single point]"
22,Cc1noc(C)c1-c1ccc2ncnc(NCc3cc(F)cc(F)c3)c2c1,inactive
